{"sequences": {"note": "Sequences of proteins named here, by UniProt entry; tags and fusion partners are left off.", "UniProt O35652": "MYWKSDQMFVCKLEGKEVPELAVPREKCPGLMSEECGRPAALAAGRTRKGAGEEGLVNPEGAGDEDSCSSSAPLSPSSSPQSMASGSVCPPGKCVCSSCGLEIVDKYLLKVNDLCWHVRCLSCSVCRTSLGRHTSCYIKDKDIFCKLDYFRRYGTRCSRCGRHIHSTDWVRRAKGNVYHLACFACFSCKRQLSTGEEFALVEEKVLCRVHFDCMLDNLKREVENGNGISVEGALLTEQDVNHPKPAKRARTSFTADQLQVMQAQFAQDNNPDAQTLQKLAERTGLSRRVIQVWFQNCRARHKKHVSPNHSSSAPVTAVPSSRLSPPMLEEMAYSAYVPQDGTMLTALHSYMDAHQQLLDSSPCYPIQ"}, "source": "paper PMC3998908", "molecules": {"B1": {"name": "Lhx3 (HA-tagged, in vitro translated) (protein, UniProt P50481 1-400)", "chain": "MLLEAELDCHRERPGAPGASALCTFSRTPEIPMCAGCDQHILDRFILKALDRHWHSKCLKCSDCHVPLAERCFSRGESVYCKDDFFKRFGTKCAACQLGIPPTQVVRRAQDFVYHLHCFACVVCKRQLATGDEFYLMEDSRLVCKADYETAKQREAEATAKRPRTTITAKQLETLKSAYNTSPKPARHVREQLSSETGLDMRVVQVWFQNRRAKEKRLKKDAGRQRWGQYFRNMKRSRGSSKSDKDSIQEGQDSDAEVSFTDEPSMADMGPANGLYSSLGEPAPALGRPVGGLGSFTLDHGGLTGPEQYRELRPGSPYGIPPSPAAPQSLPGPQPLLSSLVYPDTNLSLVPSGPPGGPPPMRVLAGNGPSSDLSTESSSGYPDFPASPASWLDEVDHAQF"}, "B2": {"name": "Lhx1 (HA-tagged, in vitro translated) (protein, UniProt P63006 1-406)", "chain": "MVHCAGCKRPILDRFLLNVLDRAWHVKCVQCCECKCNLTEKCFSREGKLYCKNDFFRCFGTKCAGCAQGISPSDLVRRARSKVFHLNCFTCMMCNKQLSTGEELYIIDENKFVCKEDYLSNSSVAKENSLHSATTGSDPSLSPDSQDPSQDDAKDSESANVSDKEGGSNENDDQNLGAKRRGPRTTIKAKQLETLKAAFAATPKPTRHIREQLAQETGLNMRVIQVWFQNRRSKERRMKQLSALGARRHAFFRSPRRMRPLVDRLEPGELIPNGPFSFYGDYQSEYYGPGGNYDFFPQGPPSSQAQTPVDLPFVPSSGPSGTPLGGLDHPLPGHHPSSEAQRFTDILAHPPGDSPSPEPSLPGPLHSMSAEVFGPSPPFSSLSVNGGASYGNHLSHPPEMNEAAVW"}, "B3": {"name": "Flag-Isl1 (protein, UniProt P61374 1-349)", "chain": "MGDMGDPPKKKRLISLCVGCGNQIHDQYILRVSPDLEWHAACLKCAECNQYLDESCTCFVRDGKTYCKRDYIRLYGIKCAKCSIGFSKNDFVMRARSKVYHIECFRCVACSRQLIPGDEFALREDGLFCRADHDVVERASLGAGDPLSPLHPARPLQMAAEPISARQPALRPHVHKQPEKTTRVRTVLNEKQLHTLRTCYAANPRPDALMKEQLVEMTGLSPRVIRVWFQNKRCKDKKRSIMMKQLQQQQPNDKTNIQGMTGTPMVAASPERHDGGLQANPVEVQSYQPPWKVLSDFALQSDIDQPAFQQLVNFSEGGPGSNSTGSEVASMSSQLPDTPNSMVASPIEA"}}, "key": {"GST-Isl1 (rat)": {"biological_target": "T1, GST-Isl1 (rat) (UniProt P61374)", "T1 sequence": "B3 chain", "assay": "pull-down; in vitro GST pull-down: GST fusion proteins on glutathione sepharose beads incubated with in vitro translated Lhx8, Lhx3 or Lhx1; bound proteins eluted by boiling, western blot with anti-HA, Odyssey imaging; only the target purified"}, "GST-NLI (mouse)": {"biological_target": "T2, GST-NLI (mouse) (UniProt P70662)", "T2 sequence": "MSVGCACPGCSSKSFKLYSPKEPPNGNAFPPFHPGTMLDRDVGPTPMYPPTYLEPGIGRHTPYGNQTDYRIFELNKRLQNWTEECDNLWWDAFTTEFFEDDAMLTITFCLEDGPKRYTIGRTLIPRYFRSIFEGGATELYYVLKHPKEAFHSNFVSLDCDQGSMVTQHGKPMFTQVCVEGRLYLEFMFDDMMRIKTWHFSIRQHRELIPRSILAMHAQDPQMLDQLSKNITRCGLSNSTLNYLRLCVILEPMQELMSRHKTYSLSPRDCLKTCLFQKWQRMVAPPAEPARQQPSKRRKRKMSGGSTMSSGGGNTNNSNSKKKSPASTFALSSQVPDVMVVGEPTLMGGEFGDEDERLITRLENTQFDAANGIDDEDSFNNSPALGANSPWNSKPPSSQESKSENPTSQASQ", "assay": "pull-down; in vitro GST pull-down: GST fusion proteins on glutathione sepharose beads incubated with in vitro translated Lhx8, Lhx3 or Lhx1; bound proteins eluted by boiling, western blot with anti-HA, Odyssey imaging; only the target purified"}, "[1]": {"biological_target": "T3, GST-NLI (mammalian expression, pEBG) (mouse) (UniProt P70662)", "T3 sequence": "T2 sequence", "assay": "pull-down; GST pull-down from transfected HEK293 cells (Flag- and GST-tagged constructs); lysis in IP buffer (20 mM Tris-HCl pH 8.0, 0.5% NP-40, 1 mM EDTA, 150 mM NaCl, 10% glycerol); glutathione sepharose beads; western blot"}, "[2]": {"biological_target": "GST-Lhx8 (mammalian expression, pEBG) (mouse) (UniProt O35652)", "assay": "pull-down; GST pull-down from transfected HEK293 cells (Flag- and GST-tagged constructs); lysis in IP buffer (20 mM Tris-HCl pH 8.0, 0.5% NP-40, 1 mM EDTA, 150 mM NaCl, 10% glycerol); glutathione sepharose beads; western blot"}}, "note": "These are yes or no findings as the source states them, for the method shown. In cells and extracts the contact can be indirect. Some binding calls cover weakened binding; strength is not graded here. Sequences can lack the tags named with a protein.", "data": [{"molecule": "Lhx8 (HA-tagged, in vitro translated) (from UniProt O35652 1-367)", "values": [{"measurement": "binding", "setting": "GST-Isl1 (rat)", "value": "binds"}, {"measurement": "binding", "setting": "GST-NLI (mouse)", "value": "binds"}]}, {"molecule": "Flag-Lhx8 (from UniProt O35652 1-367)", "values": [{"measurement": "binding", "setting": "[1]", "value": "binds"}]}, {"molecule": "B1", "values": [{"measurement": "binding", "setting": "GST-Isl1 (rat)", "value": "binds"}, {"measurement": "binding", "setting": "GST-NLI (mouse)", "value": "binds"}]}, {"molecule": "B2", "values": [{"measurement": "binding", "setting": "GST-Isl1 (rat)", "value": "no binding"}, {"measurement": "binding", "setting": "GST-NLI (mouse)", "value": "binds"}]}, {"molecule": "B3", "values": [{"measurement": "binding", "setting": "[2]", "value": "binds"}]}]}
